{
  "source": "PubChem BioAssay AID1345083",
  "about": "(National Center for Advancing Translational Sciences (NCATS), 2018)",
  "note": "Out of some 94,000 compounds screened, about 6,200 (6.6%) were called active. The shares of active, inactive and inconclusive entries below differ from those in the screen. Calls come from the whole dose curve; as a rule, active = well fitted inhibition curve with a large enough effect; inconclusive = small, poorly fitted or top-dose-only effect; inactive = flat fitted curve, though single readings scatter. Potencies beside an inconclusive call are fits to weak or partial responses and may not hold up. % is set by controls: 0 for no effect and ±100 for the full control effect; potency is the fitted concentration of half-maximal effect; tags give direction and shape of the fitted curve.",
  "data": [
    {"test": "Cytotoxic Profiling in HEK 293 Cell Line of Diverse Libraries Using Quantitative High-Throughput Screening; note: nearly all actives have a fitted effect of over 60% in size", "conditions": "HEK 293 viability, ATP luminescence (CellTiter-Glo), 48-72 h; activity change, negative = cytotoxicity: at 115 µM (top of the series) unless noted; series mostly up to 115 µM", "how_it_was_run": "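Cytotoxicity was scored by loss of ATP-coupled luminescence (CellTiter-Glo) in HEK 293 cells. Compound treatment ran 48 or 72 hr at 37 degree Celsius, 5% CO2, 95% humidity.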", "values": [
      {"smiles": "CC1=C[C@@H](CNCCN2CCOCC2)[C@H](C(C)C)C[C@H]1Cc1nnc(-c2ccc(C)cc2)o1", "Potency": "active: 39.8 µM"},
      {"smiles": "O=C(c1cc(F)ccc1F)N1CCC[C@H]1c1nc(-c2ccc(F)cc2)no1", "Potency": "inconclusive: 100 µM [inhibitor, single point]"},
      {"smiles": "CNC(=O)N1CCC(C2CCN(C(=O)Cc3ccsc3)C2)CC1", "note": "(stereo not given)", "activity change, negative = cytotoxicity": "inactive: 4.77%"},
      {"smiles": "COc1ccc(CCc2nc3nccc(-c4ccccn4)n3n2)cc1", "Potency": "inconclusive: 89.1 µM [inhibitor, single point]"},
      {"smiles": "O=C(O)C1(Oc2ccc3ccccc3c2)CCN(c2ncnc3nc[nH]c23)CC1", "activity change, negative = cytotoxicity": "inactive: -14.7%"},
      {"smiles": "Cc1cc(-c2ccc(F)c(C(N)=O)c2)cc(C(C)(C)C)c1", "Potency": "active: 44.7 µM"},
      {"smiles": "Cc1ccc(-c2cn3c(n2)CO[C@@H](CNC(=O)c2ccc(Cl)cc2)C3)cc1", "Potency": "inconclusive: 89.1 µM [inhibitor, partial curve]"},
      {"smiles": "O=C(Nc1ccc(F)cc1)N1CC[C@H]2COC(=O)N2c2cc(F)ccc2C1", "activity change, negative = cytotoxicity": "inactive: -7.91% [at 172 µM]"},
      {"smiles": "O=C(C[C@H]1NC(=O)c2ccccc2NC1=O)Nc1nc(-c2cccs2)cs1", "Potency": "inconclusive: 50.1 µM [inhibitor, partial curve, poor fit]"},
      {"smiles": "CCc1ccc(NC(=O)N2CCCC(Cn3cnc4cccnc43)C2)cc1", "note": "(stereo not given)", "Potency": "inconclusive: 56.2 µM [inhibitor, partial curve, poor fit]"},
      {"smiles": "O=C(c1ccc(Cl)nc1)N1CCCN(c2nc3ncccc3o2)CC1", "activity change, negative = cytotoxicity": "inactive: -2.53%"},
      {"smiles": "COc1ccccc1NC(=O)O[C@H]1COCCN(c2nc3ccccc3s2)C1", "Potency": "inconclusive: 112 µM [inhibitor, partial curve]"},
      {"smiles": "O=C(O)[C@H]1C[C@]2(CCCCNC2=O)N(C(=O)c2ccccc2)[C@H]1c1ccccc1", "activity change, negative = cytotoxicity": "inactive: -13.7%"},
      {"smiles": "O=C1Nc2ccc(-c3ccc(Cl)cc3)cc2C(=O)N2CCN(C(=O)C3CCCCC3)C[C@H]12", "Potency": "active: 39.8 µM"},
      {"smiles": "O=C(NCc1ccc(F)cc1)C1CC(=O)N(c2n[nH]c3ccccc23)C1", "note": "(stereo not given)", "Potency": "inconclusive: 89.1 µM [inhibitor, single point]"},
      {"smiles": "O=C(NC1CCCC1)N1CCC2(CC1)CC(N1CCOCC1)CCO2", "note": "(stereo not given)", "activity change, negative = cytotoxicity": "inactive: -5.31%"},
      {"smiles": "Cc1cccc(OCC(=O)N2CCC3(CC2)NC(=O)N(Cc2ccc(F)cc2)C3=O)c1", "Potency": "inconclusive: 50.1 µM [inhibitor, partial curve, poor fit]"},
      {"smiles": "Cc1nn(-c2ccccc2)c2c1C(C)N(CC1CN([S+](=O)([O-])c3ccccc3)C1)C2=O", "note": "(stereo not given)", "activity change, negative = cytotoxicity": "inactive: -31.1%"},
      {"smiles": "COCc1cc(=O)n(CC(=O)Nc2ccc(OC)c(OC)c2)c(N2CCOCC2)n1", "activity change, negative = cytotoxicity": "inactive: -0.721%"},
      {"smiles": "Cc1ccc(Nc2ccnc(N3CCN(C(=O)c4ccccc4Cl)CC3)n2)cc1", "Potency": "active: 39.8 µM"},
      {"smiles": "O=C1NCCCCCCN(Cc2ccncc2)[C@@H]2CN(Cc3ccncc3)CC[C@@H]12", "activity change, negative = cytotoxicity": "inactive: -3.77%"},
      {"smiles": "O=C1CCN(S(=O)(=O)c2ccccc2)CCCN(C(=O)CC2CCCC2)CCN1", "outcome": "inactive"},
      {"smiles": "CN(C)Cc1ccc(-c2cc3c(ccn3C)c(C(=O)NCc3cccnc3)n2)cc1", "Potency": "inconclusive: 63.1 µM [inhibitor, full curve, poor fit]"},
      {"smiles": "COCCCNC(=O)c1cnc2n[nH]c(-c3ccc(OC)cc3C)c2n1", "Potency": "inconclusive: 31.6 µM [inhibitor, full curve]"},
      {"smiles": "Cc1ccc(C(=O)N2CCN(c3ccc4ncc(-c5cccc(C(F)(F)F)c5)n4n3)CC2)cc1", "activity change, negative = cytotoxicity": "inactive: -6.17%"},
      {"smiles": "CS(=O)(=O)Nc1ccc(C2(C(=O)N3CCN(c4ccccc4)CC3)CCCCC2)cc1", "Potency": "inconclusive: 70.8 µM [inhibitor, partial curve, poor fit]"},
      {"smiles": "CNC(=O)c1cc(C)nc2onc(C3CCCN3C(=O)c3cccnc3)c12", "note": "(stereo not given)", "outcome": "inactive"},
      {"smiles": "Cc1ncoc1C(=O)N1CCCN(Cc2ccncc2)C(c2ccccc2)CC(=O)NCC1", "note": "(stereo not given)", "outcome": "inactive"},
      {"smiles": "O=C(NC[C@H]1OC[C@@H](NC2CCCC2)[C@@H]1O)c1ccncc1", "activity change, negative = cytotoxicity": "inactive: -4.61% [at 172 µM]"},
      {"smiles": "COc1ccc(-c2cc(N3CCC(NC(=O)C4COc5ccccc5O4)CC3)n[nH]2)cc1", "note": "(stereo not given)", "Potency": "inconclusive: 50.1 µM [inhibitor, partial curve, poor fit]"},
      {"smiles": "COC(=O)NC1CCN(c2nccc(Nc3ccccc3Cl)n2)CC1", "Potency": "inconclusive: 70.8 µM [inhibitor, partial curve, poor fit]"},
      {"smiles": "CCN1CCN(C(=O)c2cc(-c3cccc(C(F)(F)F)c3)nc3c2cnn3C)CC1", "Potency": "inconclusive: 50.1 µM [inhibitor, partial curve, poor fit]"},
      {"smiles": "CCc1nc(CC)n2ccn(Cc3ccc(OC)cc3)c(=O)c12", "Potency": "inconclusive: 56.2 µM [inhibitor, partial curve, poor fit]"},
      {"smiles": "CN(Cc1cnccn1)C(=O)[C@H]1CCC[C@@H](O)C1", "activity change, negative = cytotoxicity": "inactive: 4.56%"},
      {"smiles": "O=C(NCCc1ccc(F)cc1)C1CN(C2CCCCC2)C(=O)N1", "note": "(stereo not given)", "activity change, negative = cytotoxicity": "inactive: -29.4% [at 172 µM]"},
      {"smiles": "O=C1NCCCCCN(CC2CCCCC2)[C@H]2CCC[C@@H]12", "Potency": "inconclusive: 44.7 µM [inhibitor, partial curve, poor fit]"},
      {"smiles": "COc1cc2c(cc1Cn1cc(-c3nccn3C)nn1)CCC2", "Potency": "inconclusive: 89.1 µM [inhibitor, single point]"},
      {"smiles": "COc1ccc(OC)c(CN2CCOc3ccc(C(=O)NCc4ccc(C)cc4)cc3C2)c1", "Potency": "inconclusive: 79.4 µM [inhibitor, partial curve, poor fit]"},
      {"smiles": "O=C(NCc1ccc(F)cc1)C1CCCN1Cc1ccc(-c2cncnc2)cc1", "note": "(stereo not given)", "Potency": "inconclusive: 50.1 µM [inhibitor, partial curve, poor fit]"},
      {"smiles": "COCc1cc(C[C@@H]2CC[C@H](O)[C@@H](CNC(=O)N3CCOCC3)O2)no1", "activity change, negative = cytotoxicity": "inactive: 3.52% [at 172 µM]"},
      {"smiles": "CCNC(=O)N1CCc2nc(-c3ccccc3)[nH]c2C1", "activity change, negative = cytotoxicity": "inactive: -9.82%"},
      {"smiles": "Cc1cc(C)cc(CCC(=O)N2CCN(c3ccc(C#N)cn3)CC2)c1", "Potency": "inconclusive: 89.1 µM [inhibitor, single point]"},
      {"smiles": "CC(C)Cc1cc(CC2(NC3CCOCC3)COC2)no1", "outcome": "inactive [at 172 µM]"},
      {"smiles": "COc1ccc(CN2CC(O)CN([S+](=O)([O-])c3ccc(F)cc3)CC2=O)cc1", "note": "(stereo not given)", "Potency": "inconclusive: 89.1 µM [inhibitor, single point]"},
      {"smiles": "O=C1NC2(CCN(Cc3ccc(OC(F)(F)F)cc3)C2)COc2ccccc21", "note": "(stereo not given)", "Potency": "inconclusive: 56.2 µM [inhibitor, partial curve, poor fit]"}
    ]}
  ]
}
